Data from publication PMC4336329 (PLoS ONE, 2015).
About 14,000 (4.5%) of roughly 310,000 compounds showed an effect of 50% or more. The effect is printed as a negative number. The list shows a part of the results.

biological target: human ether-à-go-go-related gene (hERG) potassium channel (human, UniProt Q12809); assay: primary screen, population patch clamp on CHO cells stably expressing hERG
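Note: peak tail current of the secondary pulse compared with the same well before compound.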

Sequence of human ether-à-go-go-related gene (hERG) potassium channel (Q12809 whole entry, looked up): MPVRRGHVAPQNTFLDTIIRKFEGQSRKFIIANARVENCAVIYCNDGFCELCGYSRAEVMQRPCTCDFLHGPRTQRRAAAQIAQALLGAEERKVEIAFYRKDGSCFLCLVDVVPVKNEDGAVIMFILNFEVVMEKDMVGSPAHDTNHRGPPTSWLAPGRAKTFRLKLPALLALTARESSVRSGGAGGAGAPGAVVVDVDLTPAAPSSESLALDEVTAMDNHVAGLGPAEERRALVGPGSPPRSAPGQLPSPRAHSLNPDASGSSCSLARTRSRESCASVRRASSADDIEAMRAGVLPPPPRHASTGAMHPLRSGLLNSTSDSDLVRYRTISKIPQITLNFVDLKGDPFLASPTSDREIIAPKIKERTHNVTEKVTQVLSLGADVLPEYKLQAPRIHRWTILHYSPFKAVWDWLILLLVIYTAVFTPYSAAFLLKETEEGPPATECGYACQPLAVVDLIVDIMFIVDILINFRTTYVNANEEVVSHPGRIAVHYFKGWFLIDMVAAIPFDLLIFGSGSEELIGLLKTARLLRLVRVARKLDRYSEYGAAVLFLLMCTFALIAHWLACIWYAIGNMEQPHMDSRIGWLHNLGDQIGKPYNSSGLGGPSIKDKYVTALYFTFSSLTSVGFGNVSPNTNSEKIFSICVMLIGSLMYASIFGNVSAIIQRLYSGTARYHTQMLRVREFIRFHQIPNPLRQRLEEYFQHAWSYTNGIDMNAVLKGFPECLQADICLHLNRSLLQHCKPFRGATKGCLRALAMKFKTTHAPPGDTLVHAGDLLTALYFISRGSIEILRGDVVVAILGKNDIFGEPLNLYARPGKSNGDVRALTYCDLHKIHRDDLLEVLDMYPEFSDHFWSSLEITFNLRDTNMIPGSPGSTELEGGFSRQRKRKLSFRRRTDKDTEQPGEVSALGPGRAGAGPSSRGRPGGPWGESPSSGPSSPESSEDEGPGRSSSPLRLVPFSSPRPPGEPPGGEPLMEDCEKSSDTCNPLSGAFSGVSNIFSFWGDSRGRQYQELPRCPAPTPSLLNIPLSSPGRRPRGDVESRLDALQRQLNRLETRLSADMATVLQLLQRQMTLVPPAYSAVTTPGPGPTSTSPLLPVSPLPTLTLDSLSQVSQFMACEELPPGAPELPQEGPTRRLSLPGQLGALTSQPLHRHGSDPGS

SMILES | hERG current change (%, negative = inhibition) at 10uM [%]
COc1ccc(S(=O)(=O)NCC2CCCN(Cc3cccc(C(C)=O)c3)C2)cc1 (centres unmarked) | -43.9
COc1ccc2nc(NC(=O)CSC3=NCCS3)sc2c1 | 0.0244
Cc1ccc(C(=O)CC(=O)c2ccc(C(C)(C)C)cc2)cc1 | 15.3
Cc1sc2nc(CSCC(=O)N(C)CC(=O)Nc3ccc(F)cc3)[nH]c(=O)c2c1C | -17.8
CC(=O)Nc1ccc(N(CC(=O)NCC2CCCO2)C(=O)CCC(=O)Nc2cc(C)on2)cc1 (centres unmarked) | 17.5
CCOc1ccc(N2C(=O)CC(NC3CCN(C(=O)c4cccc(Cl)c4)CC3)C2=O)cc1 (centres unmarked) | -34.6
Cn1c(=O)c2[nH]c(N3CCN(c4cccc(O)c4)CC3)nc2n(C)c1=O | 28.1
CCN1C(=O)C2(C(C#N)=C(N)Oc3n[nH]c(COC)c32)c2ccccc21 (centres unmarked) | -1.58
COc1cccc(C(=O)Nc2c(F)c(F)c(F)c(F)c2F)c1 | -11.8
O=C(O)CCn1nc(-c2ccc(F)cc2)cc(Cc2ccccc2)c1=O | 10.6
O=C(CNC(=O)c1ccco1)N/N=C/c1ccccc1[N+](=O)[O-] | 8.7
CCOC(=O)CC(NC(=O)c1ccc(C)cc1)c1ccc(OC)cc1 (centres unmarked) | 14.3
Cc1cccc(N2CCN(CCCNC(=O)c3ccc(NC(=O)C4=CSCCO4)cc3)CC2C)c1 (centres unmarked) | -47.3
COc1cccc(NC(=O)CN(C2=NC3CS(=O)(=O)CC3S2)c2cccc(C)c2)c1 (centres unmarked) | -24.4
CC(C)(C)NC(=O)NC(=O)COC(=O)Cc1c(Cl)cccc1Cl | -11.3
CN=C1SC(CC(=O)Nc2cccc(C(F)(F)F)c2)C(=O)N1C (centres unmarked) | -2.47
O=C(COc1ccc(Cl)cc1)NCCN1CCCCC1 | -40
CC1CCCCN1Cc1ccc(-c2nnn(CC(=O)NC3CCCCC3)n2)cc1 (centres unmarked) | -0.223
COc1ccc(NS(=O)(=O)c2ccc(N3CCN(CCO)CC3)c([N+](=O)[O-])c2)cc1 | 19
CN(CC(=O)Nc1ccc(F)cc1)C(=O)COC(=O)CSc1ccc(F)cc1 | -16
Fc1ccc(-n2c(-c3ccc4c(c3)OCO4)n[nH]c2=S)cc1Cl | 9.05
COc1ccc(C(=O)NNC(=O)c2cnccn2)cc1[N+](=O)[O-] | -1.7

SMILES | hERG current change (%, negative = inhibition) at 10uM [%]
COC(=O)c1ccc2nc(NC(=O)CN3C(=O)CCC3=O)sc2c1 | 3.67
CC1(C)Cc2c(sc(NC(=O)C(=O)N3CCCC3)c2C(N)=O)CO1 | 5.08
Cc1cccc(C(=O)Nc2onc(C)c2C#N)c1 | 9.49
COc1cc(C(c2nnnn2C2CCCC2)N2CCN(C(=O)c3ccco3)CC2)cc(OC)c1OC.Cl (centres unmarked) | -4.24
O=C(N/N=C/c1ccc2c(c1)OCO2)c1cc(-c2ccccc2)nc2ccccc12 | 24.4
CCOc1ccccc1C1CC(c2cccs2)=NN1S(C)(=O)=O (centres unmarked) | -3.48
CCOCCc1c(O)nc(SCC(=O)NCc2ccco2)[nH]c1=O | 15.5
CN(CC(O)COc1ccc(S(=O)(=O)N2CCOCC2)cc1Cl)C1CCCCC1.Cl (centres unmarked) | -30
CCN(CC(=O)Nc1ccc(NC(C)=O)cc1)C(=O)c1ccccc1CCc1ccccc1 | 4.01
COc1ccc(NC(=O)NCc2ccccn2)c(OC)c1 | 9.17
S=C(Nc1ccc2nccnc2c1)N1CCOCC1 | 10.6
CCOC(=O)N1CCN(C(=O)CCl)CC1 | 16.4
O=C(N/C(=C/c1ccco1)C(=O)N1CCCCCC1)c1ccccc1 | 13.2
O=C(NC1CCCN(Cc2ccccc2F)C1)c1cccc(N2CCCC2=O)c1 (centres unmarked) | 4.16
O=C(CCS(=O)(=O)c1cc(Br)cc2c1N(C(=O)C1CC1)CC2)N1CCN(c2ccccn2)CC1 | -8.14
CCOC(=O)c1cc2c(n(-c3ccc(Cl)cc3)c1=O)CCCC2=O | -33.6
CSc1ncccc1C(=O)OCC(=O)NC1CCC(C)CC1 (centres unmarked) | 0.646
COc1ccc(CCNc2cc(-c3ccccc3)nc3ncnn23)cc1 | -2.18
CC1=CC(=O)N(c2ccc(C)cc2)C1c1ccc(Cl)cc1 (centres unmarked) | -8.48
COc1ccc(S(=O)(=O)N2CCCC(C(=O)N3CCN(c4ccccc4)CC3)C2)cc1Cl (centres unmarked) | -62
O=C(NCCc1ccccc1)C1CCCN1S(=O)(=O)c1cccc2nsnc12 (centres unmarked) | -6.32
COc1ccc(NC2CCCN(C(=O)CCc3cccc(F)c3)C2)cc1 (centres unmarked) | -2.67

SMILES | hERG current change (%, negative = inhibition) at 10uM [%]
CC(=O)Nc1ccc(N/C(C)=C/C(=O)c2cccnc2)cc1 | -7.53
Cc1ccc(CN2CCN(CCCc3ccccc3)CC2CCO)cc1 (centres unmarked) | -76.4
Cc1ccc(N(CC(=O)N/N=C/c2ccc(OC3CSC3)cc2)S(=O)(=O)c2ccccc2)cc1 | -11.4
Cc1ccc(-c2c[n+](CC(=O)c3cccs3)c3n2CCC3)cc1.[Br-] | 5.08
CC(=O)Nc1ccccc1C(=O)C(=O)Nc1cccc(C(=O)NCc2ccc(C)cc2)c1 | -58.3
CC(SCc1cc(=O)n2c([nH]c3ccccc32)c1C#N)C(=O)O (centres unmarked) | 16.3
O=C(NCCc1c[nH]c2ccccc12)c1ccc(Cl)cc1 | -12.7
Cc1nc2cc(F)ccc2n1C1CCN(Cc2nnnn2CCc2ccccc2)CC1.Cl | -65.7
CCOc1ccc(N=C2SC(C(=O)O)CC(=O)N2C)cc1 (centres unmarked) | 6.71
C=CCn1cccc(C(=O)Nc2ccc(C)c(C)c2)c1=O | -71.9
S=c1[nH]nc(C2COc3ccccc3O2)o1 (centres unmarked) | 11.7
O=C(N/N=C/c1ccccc1OC(F)F)NC1CCCCC1 | 13.8
Cc1ccc(/C=N/NC(=O)c2cc3ccccc3cc2O)o1 | -21.4
Cc1ccc(-c2nc3s/c(=C\c4ccco4)c(=O)n3n2)cc1 | 6.09
COc1ccccc1NC(=O)CCC(=O)Nc1nnc(C2CCCCC2)s1 | 12.5
CCOC(=O)N1CCN(S(=O)(=O)c2ccc(OC)c(Br)c2)CC1 | -7.9
CCC(C)[C@H](NC(=O)Nc1ccccc1F)C(=O)O (some centres unmarked) | 16.6
CC1CC(C)CN(CCCNC(=O)Cn2ncn3cccc3c2=O)C1 (centres unmarked) | -3.29
CCCNC(=O)CCn1nc(-c2ccc(C)cc2)c2ccccc2c1=O | -12.5
COc1ccc2c(=O)c3c(=O)n(-c4ccc(C)cc4)c(-c4ccccc4)nc3oc2c1 | 6.84
CN(C)N1C(N)=C(C#N)C(c2cccc(Cl)c2)C2=C1CCCC2=O (centres unmarked) | -26.2
CC1CCCC(C)N1CCCNC(=O)c1csc2c1CCCCC2 (centres unmarked) | -49.3

SMILES | hERG current change (%, negative = inhibition) at 10uM [%]
CNC(=S)N(CCc1c(C)[nH]c2ccc(C)cc12)Cc1cccnc1 | -28.2
C#CCOCCOCCOCCNc1nc(N2CCN(C(=O)CCCCCCCCCCNC(=O)[C@H](CCCCN)n3cc(C[C@@H](C)CC)nn3)CC2)nc(N2CCN(C(=O)CCCCCCCCCCNC(=O)[C@@H]([C@H](C)O)n3cc(C)nn3)CC2)n1 | 0.408
Cc1ccc(C)c(NC(NC(=O)c2ccccn2)C(Cl)(Cl)Cl)c1 (centres unmarked) | 15.7
Cl.Fc1ccc(C(c2nnnn2C2CCCC2)N2CCN(Cc3ccncc3)CC2)cc1 (centres unmarked) | -24.8
CCOC(=O)c1[nH]nc(-c2c(O)cc(C)cc2O)c1-c1csc(C)n1 | 11.3
Nc1nc2ccccc2n1CCN1CCCC1 | 6.04
Cc1cnc(C(=O)Nc2ccccc2C(=O)N2CCOCC2)cn1 | 10.8
COC(=O)c1ccc(-c2c(-c3ccccc3)ncc3cc(F)ccc23)cc1 | 7.97
COc1cccc(C(=O)Nc2ncc3c(n2)CC(C)CC3=O)c1 (centres unmarked) | 7.13
Cc1cc[n+](CC(=O)c2ccc(NC(=O)c3ccccc3)cc2)c2ccccc12.[Br-] | 7.1
CCc1nc(SCC(=O)c2ccc(Cl)s2)c2oc3ccccc3c2n1 | 8.88
NS(=O)(=O)c1ccc(CNS(=O)(=O)c2cccc3nonc23)cc1 | 16.6
COc1ccc(NC(=O)CNC(=O)Cn2ccc3ccccc3c2=O)c(OC)c1 | 15
COc1ccc(/C=C2\SC(=O)N(CCCC(=O)Nc3ccc(C(=O)O)cc3)C2=O)cc1OC | 3.58
O=C(COC(=O)c1ccc(Cl)c(S(=O)(=O)N2CCCC2)c1)NCc1cccs1 | -39.8
COc1cccc(C(c2nnnn2Cc2ccco2)N2CCN(c3cccc(C)c3C)CC2)c1OC (centres unmarked) | -3.28
CC(C)NC(=O)CCCc1cn(C)c2ccccc12 | 18.1
O=C(NC(Cc1c[nH]c2ccccc12)C(=O)N/N=C/c1ccc(Br)cc1)c1cccs1 (centres unmarked) | 8.02
CCCCC#Cc1ccccc1CC(=O)Nc1ccccc1 | 3.96
NC(=O)C(=O)N/N=C/c1c[nH]c2ccc(Br)cc12 | 12.7
